Measurements from publication PMC11790949, “A multiplex method for rapidly identifying viral protease inhibitors” (Molecular Systems Biology, 2025).

Experiments:
Type in all cases: cell-based
SARS-CoV-3CL = SARS-CoV-3CL (Severe acute respiratory syndrome coronavirus, UniProt P0C6X7)
YES1 = YES1 (Homo sapiens, UniProt P07947)
HIV-1-PR = HIV-1-PR (Human immunodeficiency virus type 1 group M subtype B, UniProt P04585); settings: HIV-1-PR model; for Max relative growth: OD595 relative to lowest drug concentration
SARS-CoV-PLP = SARS-CoV-PLP (Severe acute respiratory syndrome coronavirus, UniProt P0C6X7)

Chain of UniProt P07947 (P07947 whole entry): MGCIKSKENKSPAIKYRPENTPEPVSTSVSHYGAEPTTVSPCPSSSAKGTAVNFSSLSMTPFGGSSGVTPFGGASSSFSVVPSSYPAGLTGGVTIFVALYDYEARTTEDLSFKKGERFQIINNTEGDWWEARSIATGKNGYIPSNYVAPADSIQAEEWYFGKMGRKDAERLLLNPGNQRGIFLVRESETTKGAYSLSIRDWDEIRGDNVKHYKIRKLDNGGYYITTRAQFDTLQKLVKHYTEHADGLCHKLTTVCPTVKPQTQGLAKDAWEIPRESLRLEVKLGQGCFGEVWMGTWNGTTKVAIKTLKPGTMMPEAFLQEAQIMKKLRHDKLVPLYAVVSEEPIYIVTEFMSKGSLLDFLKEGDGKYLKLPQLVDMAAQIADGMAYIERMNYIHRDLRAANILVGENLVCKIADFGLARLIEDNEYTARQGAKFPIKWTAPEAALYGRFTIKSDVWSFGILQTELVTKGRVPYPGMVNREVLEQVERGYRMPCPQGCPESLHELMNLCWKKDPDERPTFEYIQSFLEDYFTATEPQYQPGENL

In the case of `CCc1cc(=O)oc2cc(OC(=O)c3ccco3)ccc12` [CB6728297], the Max relative growth (SARS-CoV-3CL) was 3.978.

Work on `O=C(Oc1ccc2ccc(=O)oc2c1)c1cccs1` [CB6762077] yielded a Max relative growth (SARS-CoV-3CL) of 3.255.

`O=C(Oc1ccc2ccc(=O)oc2c1)c1ccco1` [CB6778425] showed a Max relative growth (SARS-CoV-3CL) of 3.799.

In the case of `CC1(C)c2ccccc2-c2nc3ccccc3cc2C1O` (stereo not shown) [NSC19824], the “Inhibitor / Validation (true or false inhibitor in individual yeast model)” value (“Inhibitor / Validation” below) (YES1) was “FALSE” and the Max relative growth (YES1) was 0.6378.

`CC1CO/C(=C2\C(=O)OCC2C)C1` (stereo not shown) [NSC134784] was tested, and the “Inhibitor / Validation” value (HIV-1-PR) was “FALSE” and the Max relative growth (HIV-1-PR) was 0.6442.

Compound `Cc1cc2c(cc1C)N(C(=O)CCl)CC(=O)N2` [NSC138389] has a Max relative growth (SARS-CoV-PLP) of 2.65.

With `N#C/C(=C\c1c[nH]c2ccccc12)C(N)=O` [NSC163144] the “Inhibitor / Validation” value (HIV-1-PR) was “FALSE” and the Max relative growth (HIV-1-PR) was 1.071.

In the case of `N#Cc1cnn(-c2cccc(Cl)c2)c1-n1cccc1` [NSC326644], the “Inhibitor / Validation” value (YES1) was “FALSE” and the Max relative growth (YES1) was 0.6887.

With `NC(N)=NC(=S)Nc1ccc(Cl)cc1` [NSC403374] the Max relative growth (SARS-CoV-3CL) was 1.932.
